Experimental data from publication PMC4336329 (PLoS ONE, 2015).
Hit rate of the full screen: of about 310,000 compounds, about 2,200 (0.71%) showed an effect of 50% or more. Effects have a minus sign here. The list shows a part of the results.

What follows are compounds tested against human ether-à-go-go-related gene (hERG) potassium channel (human, UniProt Q12809) (assay: primary screen, population patch clamp on CHO cells stably expressing hERG).
Sequence of human ether-à-go-go-related gene (hERG) potassium channel (Q12809 whole entry, looked up): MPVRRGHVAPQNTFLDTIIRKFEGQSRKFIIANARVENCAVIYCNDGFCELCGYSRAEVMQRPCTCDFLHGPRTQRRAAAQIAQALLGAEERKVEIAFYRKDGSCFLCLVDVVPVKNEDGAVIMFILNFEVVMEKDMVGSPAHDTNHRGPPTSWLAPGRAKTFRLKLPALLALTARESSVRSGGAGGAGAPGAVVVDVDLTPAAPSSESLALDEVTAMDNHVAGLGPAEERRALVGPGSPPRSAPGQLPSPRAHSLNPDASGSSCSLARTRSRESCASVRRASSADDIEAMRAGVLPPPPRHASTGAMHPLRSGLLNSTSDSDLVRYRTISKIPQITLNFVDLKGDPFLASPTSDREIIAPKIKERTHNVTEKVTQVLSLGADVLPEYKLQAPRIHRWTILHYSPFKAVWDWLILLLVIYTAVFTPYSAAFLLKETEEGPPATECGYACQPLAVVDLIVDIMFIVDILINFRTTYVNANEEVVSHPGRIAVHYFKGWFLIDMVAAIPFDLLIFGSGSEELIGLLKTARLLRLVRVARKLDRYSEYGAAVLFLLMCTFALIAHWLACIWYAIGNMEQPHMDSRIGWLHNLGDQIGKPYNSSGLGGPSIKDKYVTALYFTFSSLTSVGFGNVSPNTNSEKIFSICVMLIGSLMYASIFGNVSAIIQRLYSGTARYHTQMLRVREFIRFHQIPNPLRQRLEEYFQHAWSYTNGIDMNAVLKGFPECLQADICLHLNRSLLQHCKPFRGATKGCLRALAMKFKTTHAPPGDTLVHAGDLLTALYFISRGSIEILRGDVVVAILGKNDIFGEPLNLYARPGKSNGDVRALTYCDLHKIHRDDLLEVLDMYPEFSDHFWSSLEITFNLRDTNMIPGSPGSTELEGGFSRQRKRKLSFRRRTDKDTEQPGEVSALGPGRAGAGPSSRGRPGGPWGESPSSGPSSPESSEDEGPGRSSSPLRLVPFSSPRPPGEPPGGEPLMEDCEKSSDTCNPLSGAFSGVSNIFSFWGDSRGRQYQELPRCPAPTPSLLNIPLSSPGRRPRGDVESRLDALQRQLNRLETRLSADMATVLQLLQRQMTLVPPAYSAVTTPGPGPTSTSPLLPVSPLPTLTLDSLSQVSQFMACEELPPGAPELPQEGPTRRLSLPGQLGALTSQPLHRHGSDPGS

Row | Compound | hERG current change (%, negative = inhibition) at 1uM [%]
1 | Cc1noc(C)c1S(=O)(=O)N(CC(=O)NCc1ccccc1)c1ccc(C(C)C)cc1 | 16
2 | Cc1cccc(OCC(=O)NNC(=O)CSc2ncc(C#N)c(N)n2)c1 | 8.43
3 | O=C(C1=C[C@@H](C2CC2)C[C@@H](OCCCCO)O1)N1CCN(Cc2ccccc2)CC1 | 9
4 | CCOC(=O)CSc1nc2sc3c(c2c(=O)n1-c1ccccc1)CCN(C)C3 | 24.6
5 | CC(NS(C)(=O)=O)C(c1cccs1)N1CCN(c2ccccc2F)CC1 (stereo not drawn) | 12.7
6 | Br.CCOc1ccc(N=c2scc(-c3ccccc3)n2CCO)cc1 | 9.03
7 | COc1cc(SC)ccc1C(=O)Nc1ncc(C)s1 | 1.4
8 | COc1cccc(/C=N/Nc2ncnc(N)c2[N+](=O)[O-])c1OC | 5.07
9 | O=C(CCc1nnc(CCCCc2ccccc2)o1)NCCCc1cccnc1 | 12.1
10 | O=C(CCc1nc(-c2ccccc2)no1)NCc1cccnc1 | -4.92
11 | COc1cc(C)ccc1NC(=O)Cc1csc(NC(=O)Nc2ccccc2OC)n1 | 7.89
12 | Cc1ccc(N=C2NC(=O)/C(=C/c3cccn3C)S2)cc1C | 10.3
13 | O=C(CN1CCN(Cc2ccc(Cl)cc2)CC1)N/N=C/c1cccc(F)c1 | -48.8
14 | Cn1c(CNc2ccc(Cl)cc2)nnc1SCC#N | 1.61
15 | O=c1[nH]c(COc2ccc(Cl)cc2Cl)nc2ccccc12 | 16.3
16 | COCCN(C(=O)CNC(=O)c1ccco1)C(C(=O)NC1CCCCC1)c1cccc(OC)c1 (stereo not drawn) | 4.56
17 | O=C(Nc1ccc(Cl)cc1)Nc1ccc(Cl)c(Cl)c1 | 1.25
18 | COc1cccc(CNC(=O)COC(=O)CCCNC(=O)c2ccc(Cl)cc2)c1 | 14.8
19 | CCOC(=O)C[n+]1ccc2c([nH]c3ccccc32)c1C.[Br-] | 8.85
20 | O=C(COC(=O)c1n[nH]c(=O)c2ccccc12)NCc1ccccc1 | 6.79
21 | CC(C)NC(=O)C1CCN(C2CCN(CC3CC=CCC3)CC2)CC1 (stereo not drawn) | 5.3
22 | c1cncc(CNc2ccc3c(c2)OCO3)c1 | -0.287

Row | Compound | hERG current change (%, negative = inhibition) at 1uM [%]
23 | Cc1coc2c(C)c3oc(=O)c(CCC(=O)NCCCn4ccnc4)c(C)c3cc12 | -13.8
24 | O=C(c1ccoc1)N1CCC2(CC1)Oc1ccc(F)cc1C(=O)C21CC(c2ccccc2)=NO1 (stereo not drawn) | 9.38
25 | CCOC(=O)N1CCN(c2cc(N3CCN(CC)CC3)c(F)cc2[N+](=O)[O-])CC1C (stereo not drawn) | -16
26 | CC(C)CC(=O)Nc1nnc(S(=O)(=O)Nc2ccccc2)s1 | 12.5
27 | Cc1ncsc1CCOC(=O)c1cccc([N+](=O)[O-])c1.Cl | 3.28
28 | CCCC(=O)Nc1c2c(nn1-c1ccc(OC)cc1)CS(=O)(=O)C2 | 4.26
29 | O=C(c1ccc(Cl)cc1)c1c[nH]cc1-c1ccccc1 | 14.2
30 | CCC(Sc1nc2n[nH]c(C)c2c(=N)n1-c1cc(Cl)ccc1C)C(=O)N1CCOCC1 (stereo not drawn) | 4.51
31 | Cc1c(Br)ccc(NC(=O)CCN2C(=O)C3C4CCC(C4)C3C2=O)c1C (stereo not drawn) | 9.93
32 | Cc1ccc(CNc2nc(C)cs2)cc1 | 8.56
33 | Cc1ccc(S(=O)(=O)N2CCN=C2c2ccccc2)cc1C | 8.69
34 | CC(C)(C)N1C(=O)[C@H]2[C@@H](c3ccc(Br)cc3)N3C(=O)N(c4ccccc4)C(=O)[C@@]3(C)[C@H]2C1=O | 2.45
35 | Cc1ccccc1NC(=O)c1ccc(Cn2cc([N+](=O)[O-])cn2)o1 | 4.9
36 | CC[n+]1c(/C=C/N(C)c2ccccc2)n(-c2ccccc2)c2ccc(-c3nc4ccccc4s3)cc21.[I-] | -29.9
37 | COc1ccc(C(C(=O)NC(C)(C)C)N(Cc2ccc(C)cc2)C(=O)CCC(=O)Nc2cc(C)on2)cc1 (stereo not drawn) | -6
38 | CC(C)N(C)CCOC(=O)c1ccc2c(c1)OCCO2.Cl | 2.41
39 | CC(Oc1ccccc1)C(=O)N1CCN=C1SCc1ccccc1F (stereo not drawn) | 4.47
40 | Br.CCOC(=O)CN=C1CC(C)(C)CC2=C1Sc1ncnc(N(C)C)c1N2 | -8.01
41 | COc1ccc(N2CCN(CCN3C(=O)c4ccccc4C3=O)CC2)cc1 | 15.7
42 | Cc1cccc2cc3c(N)c(C(=O)N4CCOCC4)sc3nc12 | 12.6
43 | CC(C)(C(=O)c1cccnc1)c1cccnc1 | 9.44
44 | Cn1c(SCC(=O)NCCc2ccccc2)ncc(C(=O)Nc2ccc(F)cc2)c1=O | 12.5

Row | Compound | hERG current change (%, negative = inhibition) at 1uM [%]
45 | CNC(=O)c1csc(-c2ccncc2)n1 | 17.9
46 | Cc1cccc(S(=O)(=O)N2CCn3cccc3C2C)c1 (stereo not drawn) | 9.22
47 | CCOC(=O)N1CCN(C(=O)COC(=O)CNC(=O)c2ccc(Cl)cc2Cl)CC1 | -0.0258
48 | COc1ccccc1Nc1ncc(-c2cccs2)s1 | -5.86
49 | CC(C)OC(=O)C(C)(C)Oc1ccc(C(=O)c2ccc(Cl)cc2)cc1 | 2.06
50 | COc1ccc(-n2ncc3c2CC(C)(C)CC3NC(=O)c2ccnn2C)cc1 (stereo not drawn) | 15.3
51 | C#CCOCCOCCOCCNc1nc(N2CCN(C(=O)CCCCCCCCCCNC(=O)[C@H]([C@@H](C)CC)n3cc(CCCCCN)nn3)CC2)nc(N2CCN(C(=O)CCCCCCCCCCNC(=O)[C@@H]([C@H](C)O)n3cc(C)nn3)CC2)n1 | 1.37
52 | CCN(CC(=O)Nc1cccc(OC)c1)CC(=O)Nc1ccc(C)cc1Cl | 6.66
53 | CCCC(=O)Nc1ncnc2c1ncn2[C@@H]1O[C@@H]2COP(=O)([O-])O[C@H]2[C@H]1OC(=O)CCC.[Na+] | 14.5
54 | O=S(=O)(NCC1CCCO1)c1ccc(Cl)cc1 (stereo not drawn) | 20.6
55 | CCNC(=O)CCSc1nnc(-c2ccncc2)o1 | 14.1
56 | COc1ccc(/C=C2\SC(=O)N(CCNC(=O)Cc3coc4cc(OC)ccc34)C2=O)cc1 | 13.5
57 | CC1CCCCC1NC(=O)c1ccc(NC2=NC3CS(=O)(=O)CC3S2)cc1 (stereo not drawn) | -4.88
58 | CCCOC(=O)c1ccc(NC(=O)c2cc(Cl)ccc2OC)cc1 | 2.93
59 | CC(C)CCc1noc(CN2CCN(CC(=O)NC(C)C)CC2)n1 | -0.271
60 | CCC(=O)Nc1nc2n(n1)C(c1ccc(OC)cc1)C=C(c1ccccc1)N2 (stereo not drawn) | 14.8
61 | CCCC1CCC(c2nc(-c3cccnc3)no2)CC1 (stereo not drawn) | -3.74
62 | Cc1c(C(=O)O)cccc1-c1ccc(/C=C2\SC(=O)NC2=O)o1 | 20.4
63 | CCN(CC)C(=O)c1cccc(-c2ccc(OC)cc2)c1 | -11.2
64 | O=C(NC1CCN(C(=O)Nc2ccccc2)CC1)C1CCCCC1 | 0.726
65 | COc1cc(CN2CCCCC2)ccc1OCc1ccccc1.O=C(O)C(=O)O | -6.57
66 | CCc1ccccc1N(CC(=O)NCC1CCCO1)C(=O)CCC(=O)Nc1cc(C)on1 (stereo not drawn) | 7.96

Row | Compound | hERG current change (%, negative = inhibition) at 1uM [%]
67 | CN(CCCCCCCCC(=O)/C=N/O)Cc1ccccc1.Cl | -26.8
68 | COc1cc(C(C)=O)ccc1OCC(=O)Nc1ccccc1N1CCCCC1 | 7.1
69 | CCCN(CCO)Cc1ccc(F)c(Br)c1 | 2.37
70 | CN(C)C(=O)CSc1nnc(-c2cnccn2)n1C | 10.7
71 | CCOP(=O)(Nc1ccc2oc(=O)c3ccccc3c2c1)OCC | 2.2
72 | CCOc1ccc(CCNC(=O)COC(=O)COc2cc(C)cc(C)c2)cc1OCC | 7.4
73 | COc1ccc(OC)c(C(O)c2nc3ccccc3n2C)c1 (stereo not drawn) | 1.43
74 | COc1ccccc1N(CC(=O)N/N=C/c1ccc(OCC(=O)NCc2ccco2)cc1)S(=O)(=O)c1ccc(C)cc1 | 11.7
75 | COCCC(=O)N1CCC(Oc2ccc(C(=O)NCCc3cn[nH]c3)cc2)CC1 | 14.5
76 | COc1cccc(CNC(=O)CC2Sc3ccccc3NC2=O)c1 (stereo not drawn) | -1.03
77 | OCCC1CN(Cc2cnc(-c3ccc(Cl)cc3)nc2)CCN1C1CCCCC1 (stereo not drawn) | -31.1
78 | CC1CC(C)CN(S(=O)(=O)N2CCCC(C(=O)NCCc3ccccc3)C2)C1 (stereo not drawn) | 12.9
79 | O=P1(Nc2cccnc2)COc2ccccc2OC1 | 20.3
80 | COc1cc2ccccc2cc1C(=O)O | 10.6
81 | CCc1nc2ccccc2c(C(=O)OCC(=O)N2CC(C)OC(C)C2)c1C (stereo not drawn) | 12.4
82 | COc1cccc2c(=O)cn[nH]c12 | -0.576
83 | Cc1cccn2c(=O)c(/C=C(\C#N)C(=O)NC3CCS(=O)(=O)C3)c(Oc3ccccc3Cl)nc12 (stereo not drawn) | 15.1
84 | CCOC(=O)C1CN(c2cc3c(cc2F)c(=O)c(C(=O)O)cn3CC)OC1C(=O)OCC (stereo not drawn) | 2.5
85 | CC(Sc1nnnn1C)C(=O)Nc1cc(S(=O)(=O)N2CCCCC2)ccc1Cl (stereo not drawn) | 5.21
86 | CC1CN(C(=O)CCC(=O)NCCCN2C(C)CCCC2C)c2ccccc2O1 (stereo not drawn) | -3.47
87 | Cc1ccc(N=C2CCCCCN2C)c(C#N)c1.Cl | -4.76
